3 molecules from PMC7822688, “W196 and the β-Hairpin Motif Modulate the Redox Switch of Conformation and the Biomolecular Interaction Network of the Apoptosis-Inducing Factor” (Oxidative Medicine and Cellular Longevity, 2021) can be followed below.

Series [1] deals with T1, human cyclophilin A (CypA) (human, UniProt P62937).
T1 construct: human cyclophilin A (CypA), UniProtKB P62937; synthetic codon-optimised cDNA in pET28a (NdeI-NotI); The His6 tag is called cleavable; whether it was cleaved is told only in the supplementary materials; source: E. coli C41 (DE3), purified (protocol in the supplementary materials)
In words: ITC; Auto-iTC200, 25°C, 50 mM potassium phosphate, pH 7.4; 10-20 μM protein partner titrated into ~10 μM oxidized hAIF_(∆1-101) variant, without NADH; single-ligand binding site model. The settings on record: both partners purified. (Isothermal titration calorimetry measures the heat released or taken up as one component is titrated into another.)

Series [2] concerns the molecule itself. In words: cross-linking; 4 μM hAIF_(∆1-101) variant, 100-fold excess of BS^3, 10 mM phosphate, pH 7.4, room temperature, 12% SDS-PAGE; with an excess of NADH (CTC state).

B1: W196A hAIF_(Δ[…]) (domain or fragment)
chain: not shown
notes: FAD holoprotein; 'ox' oxidized, 'CTC' after reduction with NADH; The His6 tag is called cleavable; whether it was cleaved is told only in the supplementary materials; also called W196Aox; source: E. coli C41 (DE3), purified to homogeneity (protocol in the supplementary materials)
Consider B1, for which the equilibrium dissociation constant (Kd) in series [1] turned out to be 1.8 µM. Also, the “stoichiometry N” value in series [2] was 2.

B2: W196L hAIF_(Δ[…]) (domain or fragment)
chain: not shown
notes: FAD holoprotein; 'ox' oxidized, 'CTC' after reduction with NADH; The His6 tag is called cleavable; whether it was cleaved is told only in the supplementary materials; also called W196Lox; W196L CTC; source: E. coli C41 (DE3), purified to homogeneity (protocol in the supplementary materials)
In the case of B2, the “stoichiometry N” value in series [2] worked out at 2.

B3: W196Y hAIF_(Δ[…]) (domain or fragment)
chain: not shown
notes: FAD holoprotein; 'ox' oxidized, 'CTC' after reduction with NADH; The His6 tag is called cleavable; whether it was cleaved is told only in the supplementary materials; also called W196Yox; W196Y CTC; source: E. coli C41 (DE3), purified to homogeneity (protocol in the supplementary materials)
As for B3, in series [1], the Kd was determined as 1 µM. In addition, in series [2], the “stoichiometry N” value is 2.

By Kd is commonly meant a measure of binding affinity in units of concentration. Read a high Kd as lower affinity. A word on the stoichiometry N: it is a count of units in the complex or per binding partner.
